# Where “and” joins values, the source holds several entries; their conditions need not be identical. Equal entries are not always repeated. Structures can show the parent of a compound that is named as a salt. About 620 (11%) of roughly 5,800 compounds showed activity.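 How the source made its calls: active = score above a cut-off or among the top three wells of a plate; in these data no inactive exceeds 0.85.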 The entries are a selection whose mix differs from that of the whole data set.
# Tested on: primary human hepatic stellate cells (donor 1)
# Assay: scaled lipid accumulation score (0 = DMSO-like, 1 = nortriptyline-like); higher = stronger HSC inactivation (lipid re-accumulation), active = hit call of the paper
# Conditions: 48 h
# Description: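 Primary lipid accumulation screen in primary human hepatic stellate cell myofibroblasts (donor 1, passage 8) in 384-well plates. 100 nL of library compound was pin-transferred into 30 µL medium in duplicate, and cells were treated for 48 h. The 'Scaled' score combines distance from plate baseline, toxicity and reproducibility penalties, and is normalised to nortriptyline (positive) and DMSO (negative) controls on each plate. A hit is defined as scaled >0.85 or among the top 3 wells per plate.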
# [1] = library stock concentration: 1 mM
# [2] = library stock concentration: 10 mM
# [3] = library stock concentration: 3.33 mM
# [4] = library stock concentration: 80 uM
# [5] = library stock concentration: 400 uM
# [6] = library stock concentration: 2 mM
smiles,measurement,setting,value
O=C1N[C@@H]2[C@@H](O)[C@@H](O)[C@H](O)[C@@H](CO)N2C1=O [Kifunensine],scaled lipid accumulation score,[1],inactive: 0.034
Nc1nc(SCc2ccc([N+](=O)[O-])cc2)c2ncn([C@@H]3O[C@H](CO)[C@H](O)C3O)c2n1 (stereo partly drawn) [S-(4-Nitrobenzyl)-6-thioguanosine],scaled lipid accumulation score,[2],inactive: 0.41
O=S(=O)(O)CCCS(=O)(=O)O,scaled lipid accumulation score,[2],inactive: ≤ 0
COc1ccc(NS(=O)(=O)c2sc3ccc(Cl)cc3c2C)cc1N1CCNCC1,scaled lipid accumulation score,[2],active: 1.31
O=C(NS(=O)(=O)c1ccc(Br)s1)c1ccc(Cl)cc1Cl [Tasisulam],scaled lipid accumulation score,[3],inactive: ≤ -0.009
same,scaled lipid accumulation score,[2],inactive: ≤ 0
O=C1NCN(c2ccccc2)C12CCN(CCCC(c1ccc(F)cc1)c1ccc(F)cc1)CC2 [Fluspirilene],scaled lipid accumulation score,[2],active: 1.02
O=C(O)c1ccc2c3c1cccc3c(=O)n1c3ccccc3nc21,scaled lipid accumulation score,[3],inactive: ≤ 0
Cn1c2ccccc2c2c3c(c4c5ccccc5n(CCC#N)c4c21)CNC3=O,scaled lipid accumulation score,[3],inactive: ≤ 0
same,scaled lipid accumulation score,library stock concentration: 13.2 mM,inactive: 0.297
OCCOCCN1CCN(C(c2ccccc2)c2ccc(Cl)cc2)CC1 (configuration not stated) [Hydroxyzine 2HCl],scaled lipid accumulation score,[3],inactive: 0.1
same,scaled lipid accumulation score,[2],inactive: 0.631
OCCOCCN1CCN(C(c2ccccc2)c2ccc(Cl)cc2)CC1 (configuration not stated) [Hydroxyzine dihydrochloride],scaled lipid accumulation score,,inactive: 0.453
OCCOCCN1CCN(C(c2ccccc2)c2ccc(Cl)cc2)CC1 (configuration not stated) [Hydroxyzine pamoate],scaled lipid accumulation score,library stock concentration: 2.6 mM,inactive: 0.044
same,scaled lipid accumulation score,[2],inactive: 0.142
C=CC1=C(C(=O)O)N2C(=O)[C@@H](NC(=O)/C(=N\OCC(=O)O)c3csc(N)n3)[C@H]2SC1 [Cefixime],scaled lipid accumulation score,,inactive: ≤ 0
C=CC1=C(C(=O)O)N2C(=O)[C@@H](NC(=O)/C(=N\OCC(=O)O)c3csc(N)n3)[C@H]2SC1,scaled lipid accumulation score,[2],inactive: ≤ 0
N#CCNC(=O)c1ccc(-c2ccnc(Nc3ccc(N4CCOCC4)cc3)n2)cc1,scaled lipid accumulation score,[3],active: 1.05
same,scaled lipid accumulation score,[2],active: 0.922
Cc1cc(-n2c(=O)[nH]c(=O)n(C)c2=O)ccc1Oc1ccc(SC(F)(F)F)cc1 [Toltrazuril],scaled lipid accumulation score,[3],inactive: ≤ 0
same,scaled lipid accumulation score,library stock concentration: 4.7 mM,inactive: ≤ 0
same,scaled lipid accumulation score,[2],inactive: ≤ -0.001
Cc1ccccc1N1C(=O)c2cc(S(N)(=O)=O)c(Cl)cc2NC1C (configuration not stated) [Metolazone],scaled lipid accumulation score,,inactive: 0.156
same,scaled lipid accumulation score,[3],inactive: ≤ 0
CC(C)COC(=O)c1ccc(N)cc1,scaled lipid accumulation score,[2],inactive: 0.122
CN(C)CCCOc1nn(Cc2ccccc2)c2ccccc12.Cl [Benzydamine HCl],scaled lipid accumulation score,[2],active: 1.08
O=C1N(c2ccccc2)c2ccccc2C1(Cc1ccncc1)Cc1ccncc1 [Linopirdine dihydrochloride],scaled lipid accumulation score,[2],inactive: ≤ -0.001
O=C1N(c2ccccc2)c2ccccc2C1(Cc1ccncc1)Cc1ccncc1 [Linopirdine],scaled lipid accumulation score,[2],inactive: ≤ -0.051
O=C1N(c2ccccc2)c2ccccc2C1(Cc1ccncc1)Cc1ccncc1,scaled lipid accumulation score,[2],inactive: ≤ 0
[I-].[K+] [Potassium Iodide],scaled lipid accumulation score,[3],inactive: ≤ 0
same,scaled lipid accumulation score,[2],inactive: ≤ 0
COc1ccc2cc1Oc1ccc(cc1)C[C@@H]1c3c(cc4c(c3Oc3cc5c(cc3OC)CCN(C)[C@H]5C2)OCO4)CCN1C [Cepharanthine],scaled lipid accumulation score,[3],active: 1.03
CC(=O)N1CCN(CCOc2ccc(C3CCN(C4=Nn5c(nnc5C(F)(F)F)CC4)CC3)cc2)CC1,scaled lipid accumulation score,[3],inactive: ≤ 0
same,scaled lipid accumulation score,[2],inactive: 0.455
CCCCC[C@H](O)/C=C/C=C\C=C\C=C\[C@@H](O)[C@@H](O)CCCC(=O)O [Lipoxin A4],scaled lipid accumulation score,library stock concentration: 100 uM,inactive: ≤ -0.021
C=CC(=O)Nc1ccc2ncnc(Nc3ccc(OCc4cccc(F)c4)c(Cl)c3)c2c1,scaled lipid accumulation score,[4],inactive: ≤ -0.016
same,scaled lipid accumulation score,[5],inactive: ≤ -0.016
same,scaled lipid accumulation score,[6],inactive: ≤ -0.016
same,scaled lipid accumulation score,[3],inactive: 0.132
same,scaled lipid accumulation score,[2],inactive: 0.378 and inactive: 0.75
CC(Oc1c(Cl)cccc1Cl)C1=NCCN1 (configuration not stated) [Lofexidine],scaled lipid accumulation score,library stock concentration: 7.7 mM,inactive: 0.02
CC(Oc1c(Cl)cccc1Cl)C1=NCCN1 (configuration not stated),scaled lipid accumulation score,[2],inactive: ≤ 0 and inactive: 0.046
CC1=C(CC(=O)O)c2cc(F)ccc2/C1=C\c1ccc([S+](C)[O-])cc1 (configuration not stated) [Sulindac],scaled lipid accumulation score,,inactive: ≤ 0
same,scaled lipid accumulation score,[1],inactive: ≤ 0
same,scaled lipid accumulation score,[3],inactive: 0.011
same,scaled lipid accumulation score,[2],inactive: ≤ 0 and inactive: 0.001 and inactive: 0.022
CN(C)CCCO[C@@H]1[C@H]2OC(C)(C)O[C@H]2O[C@@H]1[C@H](O)CO [Amiprilose hydrochloride],scaled lipid accumulation score,,inactive: ≤ 0
CN(C)CCCO[C@@H]1[C@H]2OC(C)(C)O[C@H]2O[C@@H]1[C@H](O)CO [Amiprilose],scaled lipid accumulation score,library stock concentration: 5.9 mM,inactive: ≤ 0
same,scaled lipid accumulation score,[2],inactive: ≤ -0.027
C[C@]12CC[C@@H]3c4ccc(O)cc4CC[C@H]3[C@@H]1C[C@@H](O)[C@@H]2O [Estriol],scaled lipid accumulation score,,inactive: ≤ 0
same,scaled lipid accumulation score,[3],inactive: ≤ 0
same,scaled lipid accumulation score,library stock concentration: 6.9 mM,inactive: ≤ 0 and inactive: ≤ -0.001
same,scaled lipid accumulation score,[2],inactive: ≤ 0
Cc1nc(N)sc1-c1ccnc(Nc2ccc(N3CCOCC3)cc2)n1,scaled lipid accumulation score,[5],inactive: ≤ -0.005
same,scaled lipid accumulation score,[6],inactive: ≤ -0.005
same,scaled lipid accumulation score,[3],inactive: ≤ 0
CCC[C@H](NC(=O)[C@@H]1[C@H]2CCC[C@H]2CN1C(=O)[C@@H](NC(=O)[C@@H](NC(=O)c1cnccn1)C1CCCCC1)C(C)(C)C)C(=O)C(=O)NC1CC1 [Telaprevir (VX-950)],scaled lipid accumulation score,[3],inactive: ≤ 0
same,scaled lipid accumulation score,[2],inactive: ≤ 0
CCc1cccc2c3c([nH]c12)C(CC)(CC(=O)O)OCC3 (configuration not stated) [Etodolac],scaled lipid accumulation score,,inactive: ≤ 0
same,scaled lipid accumulation score,[3],inactive: ≤ 0
same,scaled lipid accumulation score,library stock concentration: 7 mM,inactive: ≤ 0
same,scaled lipid accumulation score,[2],inactive: 0.142 and inactive: ≤ 0 and inactive: ≤ -0.07
Cc1noc(NS(=O)(=O)c2ccc(N)cc2)c1C [Sulfisoxazole],scaled lipid accumulation score,,inactive: 0.048
same,scaled lipid accumulation score,[3],inactive: ≤ 0
same,scaled lipid accumulation score,library stock concentration: 7.5 mM,inactive: ≤ 0
same,scaled lipid accumulation score,[2],inactive: ≤ 0 and inactive: 0.037 and inactive: 0.113
CCCCC(=O)O[C@]1(C(=O)CO)CC[C@H]2[C@@H]3CCC4=CC(=O)CC[C@]4(C)[C@H]3[C@@H](O)C[C@@]21C [Westcort],scaled lipid accumulation score,[2],inactive: 0.094
CCCCC(=O)O[C@]1(C(=O)CO)CC[C@H]2[C@@H]3CCC4=CC(=O)CC[C@]4(C)[C@H]3[C@@H](O)C[C@@]21C [Hydrocortisone valerate],scaled lipid accumulation score,library stock concentration: 4.5 mM,inactive: ≤ 0
CC[N+](CC)(CC)CCC(O)(c1ccccc1)C1CCCCC1 (configuration not stated) [Tridihexethyl chloride],scaled lipid accumulation score,,inactive: ≤ 0
C[C@@H]1CN(CC(=O)Nc2ccc3c(c2)Cc2cccc(-c4cc(=O)cc(N5CCOCC5)o4)c2S3)C[C@H](C)O1,scaled lipid accumulation score,[4],inactive: ≤ -0.006
same,scaled lipid accumulation score,[5],inactive: ≤ -0.009
same,scaled lipid accumulation score,[6],inactive: ≤ -0.009
same,scaled lipid accumulation score,[3],inactive: ≤ 0
same,scaled lipid accumulation score,[2],inactive: 0.001 and inactive: 0.074
O=C1CC2(CCCC2)CC(=O)N1CCNCC1COc2ccccc2O1 (configuration not stated),scaled lipid accumulation score,[2],inactive: ≤ 0 and inactive: 0.017
NC[C@@H]1O[C@H](c2ccccc2)Cc2c1ccc(O)c2O,scaled lipid accumulation score,[2],inactive: ≤ 0
CO/N=C(\C(=O)N[C@@H]1C(=O)N2C(C(=O)O)=C(C[N+]3(C)CCCC3)CS[C@H]12)c1csc(N)n1 [Cefepime hydrochloride],scaled lipid accumulation score,,inactive: ≤ 0
CCOC(=O)[C@H](CCc1ccccc1)N[C@@H](C)C(=O)N1CCC[C@H]1C(=O)O,scaled lipid accumulation score,[2],inactive: ≤ 0
CCOC(=O)[C@H](CCc1ccccc1)N[C@@H](C)C(=O)N1CCC[C@H]1C(=O)O [Enalapril Maleate],scaled lipid accumulation score,[3],inactive: 0.026
same,scaled lipid accumulation score,[2],inactive: ≤ 0
CCOC(=O)[C@H](CCc1ccccc1)N[C@@H](C)C(=O)N1CCC[C@H]1C(=O)O [Enalapril],scaled lipid accumulation score,library stock concentration: 5.3 mM,inactive: ≤ 0
CCOC(=O)[C@H](CCc1ccccc1)N[C@@H](C)C(=O)N1CCC[C@H]1C(=O)O [Enalapril maleate],scaled lipid accumulation score,,inactive: ≤ 0
same,scaled lipid accumulation score,[2],inactive: ≤ 0
CCCCC[C@H](O)/C=C/[C@H]1[C@H](O)CC(=O)[C@@H]1C/C=C\CCCC(=O)NC(CO)CO [Prostaglandin E2 serinol amide],scaled lipid accumulation score,[1],inactive: ≤ 0
CS(=O)(=O)CCNCc1ccc(-c2ccc3ncnc(Nc4ccc(OCc5cccc(F)c5)c(Cl)c4)c3c2)o1.Cc1ccc(S(=O)(=O)O)cc1.Cc1ccc(S(=O)(=O)O)cc1,scaled lipid accumulation score,[3],active: 1.36
same,scaled lipid accumulation score,[2],active: 1.55
CNCCC(Oc1ccc(C(F)(F)F)cc1)c1ccccc1.Cl (configuration not stated) [Fluoxetine HCl],scaled lipid accumulation score,[3],active: 0.709
same,scaled lipid accumulation score,[2],active: 1.02
CNC(=O)[C@H](Cc1ccccc1)NC(=O)[C@H](CC(C)C)[C@H](CSc1cccs1)C(=O)NO [Batimastat (BB-94)],scaled lipid accumulation score,[3],inactive: ≤ -0.009
same,scaled lipid accumulation score,[2],inactive: ≤ 0
CCCCC[C@H](O)C/C=C1/C(=O)C=C[C@@H]1C/C=C\CCCC(=O)O [D12-Prostaglandin J2],scaled lipid accumulation score,[1],inactive: ≤ -0.021
Cn1nnnc1SCC1=C(C(=O)O)N2C(=O)[C@@H](NC(=O)[C@H](OC=O)c3ccccc3)[C@H]2SC1 [Cefamandole nafate],scaled lipid accumulation score,[2],inactive: ≤ 0
C[C@]12CC[C@@H]3c4ccc(O)cc4CC[C@H]3[C@@H]1C[C@H](O)[C@@H]2O,scaled lipid accumulation score,[2],inactive: ≤ 0
NOCC(=O)O [O-(Carboxymethyl)hydroxylamine hemihydrochloride],scaled lipid accumulation score,[2],inactive: ≤ 0
Cl.Clc1ccc(CCCOCCCN2CCCCC2)cc1,scaled lipid accumulation score,[2],active: 1.05
CCCCC/C=C\C/C=C\C/C=C\C/C=C\CCCC(=O)OC(CO)CO [2-Arachidonoyl Glycerol],scaled lipid accumulation score,[1],inactive: ≤ 0
CCCCC/C=C\C/C=C\C/C=C\C/C=C\CCCC(=O)OC(CO)CO [2-Arachidonoylglycerol],scaled lipid accumulation score,[1],inactive: 0.011

# Source: the supplement of paper PMC9135407
